From the supplement of paper PMC10126150
Sequences with one replicate were seen in a single cluster, so their values are uncertain.

System: ATP
Assay: switch fluorescence ratio, 500 uM ATP over buffer (Cy3 cluster intensity, sum of 5 cycles each) (fold (ratio)); higher = stronger signal-on switching upon ATP binding; sequences stand for … in TCGTCGGCAGCGTCAGATGTGTATAAGAGACAGTTTTTTTTTTTTTTTTTTTTTTTTT…TC
Details: aptamer strand: ATP DNA aptamer (quencher-CACCTGGGGGAGTATTGCGGAGGAAGG + anchor), 100 nM annealed; ATP concentration: 500 uM; one replicate
Summary of the method: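 Clusters with intensities outside 100-1000 RFU were excluded. The remaining Cy3-labelled switching-strand clusters on a modified Illumina MiSeq flow-cell had been annealed to 100 nM quencher-labelled ATP aptamer and imaged in selection buffer, then after 15 min with 500 uM ATP at 22 °C, for five cycles separated by NaOH stripping and re-annealing. The fluorescence ratio, averaged per switch-domain sequence, is each cluster's summed target-cycle Cy3 intensity over its summed buffer-cycle Cy3 intensity.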
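Also: ATP exposure 15 min at 22 °C before imaging.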

Row | Sequence | switch fluorescence ratio
1 | TTGGGACATT | 1
2 | TTGGGATCTC | 1.04
3 | TTGGGGTGTA | 1
4 | TTGGGTAAAC | 1.07
5 | TTGGGTCACG | 0.98
6 | TTGGGTGGAT | 1.42
7 | TTGGGTGTC | 0.94
8 | TTGGGTTACC | 0.969
9 | TTGGTAACCG | 1
10 | TTGGTACGTC | 1.04
11 | TTGGTAGACG | 1.01
12 | TTGGTCGACC | 1.11
13 | TTGGTCTCGT | 1.08
14 | TTGGTGAGTA | 0.98
15 | TTGGTGCATC | 0.96
16 | TTGGTTCGGG | 0.973
17 | TTGGTTTCCG | 1.02
18 | TTGTAAAAGC | 1.05
19 | TTGTAACCGG | 1.03
20 | TTGTAAGGTG | 1.22
21 | TTGTACCTTA | 1.13
22 | TTGTACGATT | 0.973
23 | TTGTAGGATT | 1.04
24 | TTGTATCAAT | 1.03
25 | TTGTCAAAAA | 1.63
26 | TTGTCATCGC | 0.99

Row | Sequence | switch fluorescence ratio
27 | TTGTCCGGAC | 1.01
28 | TTGTCGTTTC | 1.05
29 | TTGTGAACGG | 0.972
30 | TTGTGCCACT | 0.95
31 | TTGTGGGATG | 0.975
32 | TTGTGGTAGG | 0.978
33 | TTGTGTACAC | 0.957
34 | TTGTGTGTTC | 0.99
35 | TTGTGTTTGA | 0.964
36 | TTGTTCCATT | 1.05
37 | TTGTTGGCCT | 1.04
38 | TTGTTGTCCT | 0.965
39 | TTGTTTACAG | 0.921
40 | TTGTTTCAT | 1.02
41 | TTGTTTGCAG | 0.959
42 | TTGTTTGG | 1
43 | TTGTTTGTCG | 1.1
44 | TTGTTTTAT | 0.981
45 | TTTAAATAAG | 0.993
46 | TTTAACATTG | 1.01
47 | TTTAAGCTGC | 1.01
48 | TTTAAGGTGT | 0.962
49 | TTTAATCTTT | 1.01
50 | TTTAATGTTA | 0.948
51 | TTTAATTCCA | 1.03
52 | TTTAATTCG | 1.03

Row | Sequence | switch fluorescence ratio
53 | TTTAATTGA | 0.955
54 | TTTACAAACG | 1.33
55 | TTTACAACAG | 0.971
56 | TTTACACGGA | 0.997
57 | TTTACATATT | 1.02
58 | TTTACATCA | 0.98
59 | TTTACCCATG | 1.04
60 | TTTACCCCTT | 1.34
61 | TTTACGAGAG | 1.01
62 | TTTACGATAC | 2.62
63 | TTTACGGGGT | 0.933
64 | TTTACGTCT | 1.04
65 | TTTACGTGGC | 1.16
66 | TTTACGTTCT | 0.976
67 | TTTACTCATA | 1.04
68 | TTTACTGTG | 0.994
69 | TTTACTTTTG | 1.05
70 | TTTAGAAATT | 0.981
71 | TTTAGACGAA | 0.962
72 | TTTAGAGCGG | 0.995
73 | TTTAGAGTCT | 1.01
74 | TTTAGATAGA | 0.981
75 | TTTAGCGTAT | 1.01
76 | TTTAGCTAG | 1.04
77 | TTTAGGACT | 1.01
78 | TTTAGGTGAC | 0.985

Row | Sequence | switch fluorescence ratio
79 | TTTAGGTGGG | 1.05
80 | TTTAGTAAAG | 0.977
81 | TTTAGTCTTT | 0.992
82 | TTTAGTTTAC | 1.02
83 | TTTAGTTTC | 0.934
84 | TTTATACAG | 1
85 | TTTATACCCT | 1.04
86 | TTTATCACTC | 0.928
87 | TTTATCTAGC | 1
88 | TTTATGGAT | 0.973
89 | TTTATGTATC | 1.04
90 | TTTATTACTC | 1.05
91 | TTTATTGTAG | 0.94
92 | TTTATTGTTG | 1
93 | TTTCAACGAC | 1.05
94 | TTTCACAGTG | 1.03
95 | TTTCAGCG | 1.05
96 | TTTCATAATA | 1.04
97 | TTTCATAGGT | 1.05
98 | TTTCATGTT | 1.02
99 | TTTCATTAAG | 1.02
100 | TTTCCACCAT | 1.11
101 | TTTCCAGTTG | 1.01
102 | TTTCCATAAT | 1.01
103 | TTTCCATTAC | 1.14
104 | TTTCCGTCGA | 1.1

Row | Sequence | switch fluorescence ratio
105 | TTTCGAC | 1.05
106 | TTTCGAGCAG | 0.975
107 | TTTCGATC | 0.98
108 | TTTCGATTTC | 0.973
109 | TTTCGCCCGG | 1.02
110 | TTTCGCGGG | 1.15
111 | TTTCGCTGGC | 0.983
112 | TTTCGCTGGG | 1.15
113 | TTTCGGCACG | 0.963
114 | TTTCGGCTGC | 0.978
115 | TTTCGGTTCG | 1.02
116 | TTTCGTTACA | 1.05
117 | TTTCGTTGAG | 0.977
118 | TTTCTAAAAG | 1
119 | TTTCTAACCT | 0.964
120 | TTTCTAACTT | 0.993
121 | TTTCTACGGT | 1.01
122 | TTTCTATGCT | 1.04
123 | TTTCTCCTAA | 1.06
124 | TTTCTCTTTG | 0.976
125 | TTTCTGAGA | 0.983
126 | TTTCTGCAAC | 1.44
127 | TTTCTGTGGT | 0.982
128 | TTTCTTTACC | 1.05
129 | TTTGAACAAG | 1.06
130 | TTTGAACGGC | 1

Row | Sequence | switch fluorescence ratio
131 | TTTGACCCCT | 1.03
132 | TTTGACTACC | 1.18
133 | TTTGACTTGG | 1.05
134 | TTTGAGGGAA | 1.02
135 | TTTGAGGGAG | 0.981
136 | TTTGATACCG | 0.995
137 | TTTGATAGGC | 0.985
138 | TTTGATATCG | 0.992
139 | TTTGATCTAG | 1.03
140 | TTTGATGA | 1.04
141 | TTTGATTGCT | 0.991
142 | TTTGCAAGG | 1.6
143 | TTTGCCAACG | 0.964
144 | TTTGCCGCG | 1.03
145 | TTTGCCTTCG | 1.21
146 | TTTGCGACGA | 1.05
147 | TTTGCGGATC | 0.971
148 | TTTGCTGGGG | 1.07
149 | TTTGGAAGTC | 1.02
150 | TTTGGATCTC | 0.977
151 | TTTGGCAACA | 1.07
152 | TTTGGCAACT | 1.05
153 | TTTGGCAGTG | 0.963
154 | TTTGGGAAGA | 0.995
